Assay results as given in PubChem BioAssay AID485294 (National Center for Advancing Translational Sciences (NCATS), 2010).
The whole screen tested about 370,000 compounds, of which about 150 (0.041%) were called active. This list was built around the results that the source calls inconclusive (neither active nor inactive); the mix of calls is not that of the screen. Calls follow the shape of the dose curve; as a rule, active = well fitted inhibition curve with a large enough effect; inconclusive = small, poorly fitted or top-dose-only effect; inactive = flat fitted curve, though single readings scatter. Potencies of inconclusive entries are left out as doubtful fits.

What follows are molecules tested against Beta-lactamase (Escherichia coli (strain K12)) (UniProt P00811) (assay: qHTS Inhibitors of AmpC Beta-Lactamase (assay with detergent)). Conditions: AmpC hydrolysis of nitrocefin, absorbance 480 nm, 0.01% Triton; series mostly up to 114 µM.
UniProt P00811, sequence (P00811 whole entry, looked up): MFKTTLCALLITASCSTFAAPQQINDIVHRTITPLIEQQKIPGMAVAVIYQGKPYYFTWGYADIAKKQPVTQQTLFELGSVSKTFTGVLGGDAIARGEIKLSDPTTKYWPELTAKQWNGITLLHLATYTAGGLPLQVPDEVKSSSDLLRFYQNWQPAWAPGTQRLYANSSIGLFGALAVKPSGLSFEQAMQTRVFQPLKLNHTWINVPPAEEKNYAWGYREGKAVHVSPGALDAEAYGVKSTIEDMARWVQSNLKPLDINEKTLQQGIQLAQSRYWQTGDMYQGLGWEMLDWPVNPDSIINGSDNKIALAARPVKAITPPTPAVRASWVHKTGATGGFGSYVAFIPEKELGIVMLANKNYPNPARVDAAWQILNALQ
In short: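 20 mM phosphate pH 7.0 + 0.01% (detergent screen) or 0.0001% Triton X-100; 5.3 nM AmpC reagent; cpd preinc 15 min RT; nitrocefin (800 uM stock) to start; A480 q20 s × 4 min; Activity was normalised to no-enzyme and no-compound control wells.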
Also: nearly all actives have a fitted effect of over 25% in size.
Potency is read from the fitted curve at half-maximal effect; tags tell the direction and shape of the fitted curve.

| Structure (SMILES) | Potency |
| --- | --- |
| COc1ccc(NC(=O)Nc2ccc(N3CCOCC3)c3nonc23)c(OC)c1 | inconclusive [inhibitor, partial curve] |
| COc1cc(C(=O)NCCSc2ccc(Br)cc2)cc(OC)c1OC | inconclusive [inhibitor, full curve, poor fit] |
| COc1cccc(/C=C/C(=O)Nc2ccc3c(c2)OCCO3)c1OC | inconclusive [inhibitor, partial curve] |
| C=CCNC1=C(Cl)C(=O)N(Cc2ccccc2)C1=O | inactive |
| C=CCC(=O)N1CCCC(CO)(Cc2ccc(F)cc2F)C1 (centres undefined) | inconclusive [inhibitor, full curve, poor fit] |
| Cc1nc2nc(N)nn2c(C)c1C/C=C/c1ccccc1 | inconclusive [inhibitor, single point] |
| Cc1cccc2c1cnn2C(=O)CCC(=O)NCC(C)c1ccccc1 (centres undefined) | inconclusive [inhibitor, full curve, poor fit] |
| O=C1OC(/C=C/c2ccccc2)=NC/1=C/C=C/c1ccccc1 | inconclusive [inhibitor, partial curve, poor fit] |
| COc1cc(OC)cc(C(=O)OCn2nnc3ccccc3c2=O)c1 | inconclusive [inhibitor, full curve, poor fit] |
| CC(=O)C1=C(O)C(=O)N(c2ccc(Br)cc2)C1c1ccccc1[N+](=O)[O-] (centres undefined) | inactive |
| COc1ccccc1CNC(=O)COC(=O)CNS(=O)(=O)c1ccc(C)cc1 | inactive |
| CCOC(=O)c1ccc(NC(=O)COc2ccc(CNC3CCCCC3)cc2OC)cc1 | inconclusive [inhibitor, partial curve, poor fit] |
| C/C(=C\c1ccco1)C1C(C#N)=C(N)OC2=C1C(=O)CC(C)(C)C2 (centres undefined) | inconclusive [inhibitor, partial curve] |
| Cc1nc2nc(Cc3ccccc3)[nH]n2c(=O)c1Cc1ccccc1 | inconclusive [inhibitor, full curve] |
| NC(=O)c1ccc(NC(=O)COC(=O)c2ccc3c(c2)OCCO3)cc1 | inconclusive [inhibitor, full curve, poor fit] |
| CC(C)NCCCOc1ccc(C(C)(C)c2ccccc2)cc1 | inactive |
| O=C(CCCc1nc2ccccc2s1)NC(c1ccccc1)c1ccccc1 | inconclusive [inhibitor, full curve, poor fit] |
| Nc1nc2ccccc2n1CCOc1ccc(Br)cc1 | inactive |
| COc1ccccc1C1CC(=O)Nc2cc3c(cc21)OCCO3 (centres undefined) | inactive |
| CN1CCN(/N=C2/C(=O)Nc3ccc([N+](=O)[O-])cc32)CC1 | inconclusive [inhibitor, full curve] |
| Cc1oc(C)c2c(=O)cc(-c3ccc4c(c3)OCO4)cc(OC(=O)c3ccccc3Cl)c12 | inactive |
| COc1ccccc1OCCNC(=O)CNC(=O)c1ccc(Cl)c(Cl)c1 | inconclusive [inhibitor, full curve] |
| COc1ccc(Cl)cc1NC(=O)c1nc2nc(C)cc(C(F)F)n2n1 | inconclusive [inhibitor, partial curve] |

| Structure (SMILES) | Potency |
| --- | --- |
| Cc1ccc2c(C)[nH]c(=O)cc2c1 | inconclusive [inhibitor, partial curve, poor fit] |
| CC(=O)Nc1ccc(S(=O)(=O)N2CCN(S(=O)(=O)c3cccs3)CC2)cc1 | inconclusive [inhibitor, full curve, poor fit] |
| Cc1ccc(S(=O)(=O)NC(CCc2ccccc2)CC(=O)C(C)(C)C)cc1 (centres undefined) | inconclusive [inhibitor, full curve, poor fit] |
| COc1ccccc1CNC(=O)COc1ccc2c(c1)CCC2 | inactive |
| O=C(Cc1ccccc1)Nn1c(-c2ccccc2F)nc2ccccc2c1=O | inconclusive [inhibitor, partial curve] |
| O=C(CSc1nnc(NC(=O)C2CC(=O)N(c3ccc(F)cc3)C2)s1)NC1CCCC1 (centres undefined) | inconclusive [inhibitor, full curve, poor fit] |
| Cc1cc2ccccc2n1CCNC(=O)C1CC1 | inconclusive [inhibitor, partial curve, poor fit] |
| Cc1cc(-c2nnc3n2CCCCC3)c(C)n1-c1ccccc1 | inconclusive [inhibitor, full curve] |
| Cc1c(OC(C)C(=O)NCc2cccnc2)ccc2c3c(c(=O)oc12)CCCC3 (centres undefined) | inactive |
| CS(=O)(=O)N(CC(=O)Nc1cccc(F)c1)c1cccc([N+](=O)[O-])c1 | inconclusive [inhibitor, full curve] |
| O=C(Nc1ccc(-c2nc3ncccc3o2)cc1)c1ccco1 | inconclusive [inhibitor, full curve, poor fit] |
| Cc1nn(C)c2c1c(C(F)(F)F)cc(=O)n2Cc1cccc(Br)c1 | inactive |
| Cc1nnc(NC(=O)c2ccc(Br)o2)s1 | inconclusive [inhibitor, single point] |
| CCOc1ccc(/C=N/NC(=O)c2[nH]c3ccc(C)cc3c2C)cc1 | inactive |
| CN(C)S(=O)(=O)c1ccc(C(=O)Nc2ccnn2C2CCCCC2)cc1 | inconclusive [inhibitor, full curve] |
| CCN(CC)S(=O)(=O)c1cccc(-c2cn3cccnc3n2)c1 | inactive |
| Cc1nc(Cc2nnc(SCc3nc(N)nc(Nc4ccccc4C)n3)o2)cs1 | inconclusive [inhibitor, full curve, poor fit] |
| COc1ccccc1CNC(=O)c1ccc2nc(-c3ccccc3)c(-c3ccccc3)nc2c1 | inactive |
| COc1ccc(NC(=O)C2CCN(c3nc(C)nc4c3CCC4)CC2)cc1 | inactive |
| C/C(NCCN1CCOCC1)=C(\C#N)C(N)=O | inconclusive [inhibitor, partial curve, poor fit] |
| COc1ccc(C)cc1NC(=O)c1cnc2scc(C)n2c1=O | inconclusive [inhibitor, full curve] |
| CCc1nc(N2CCN(C(=S)NCCCOC)CC2)c2c3c(sc2n1)CCCC3 | inactive |
| O=C(O)CCC(=O)Nc1ccc(Br)cn1 | inconclusive [inhibitor, full curve] |

| Structure (SMILES) | Potency |
| --- | --- |
| CN(C)CCCNc1oc(-c2cccc(Cl)c2)nc1C#N | inconclusive [inhibitor, full curve, poor fit] |
| CN(CC(=O)Nc1ccc(Cl)cc1)C(=O)Cn1[nH]c(=O)c2ccccc2c1=O | inconclusive [inhibitor, full curve] |
| Cc1cnc(C(=O)Nc2ccc(-n3cnnn3)cc2)cn1 | inconclusive [inhibitor, full curve, poor fit] |
| CCc1nnc(NC(=O)C2CCCN2C(=O)Nc2ccccc2)s1 (centres undefined) | inconclusive [inhibitor, full curve, poor fit] |
| CCN(CC)c1ccc(/C=C/c2nc3ccccc3s2)cc1 | inactive |
| c1csc(-c2nc(CN3CCSCC3)cs2)c1 | inactive |
| CCCCCC1(C)NC(=S)N(c2ccccc2)N1 (centres undefined) | inactive |
| O=C(Nc1ccc(Br)cc1Cl)c1cnccn1 | inconclusive [inhibitor, full curve, poor fit] |
| CCCCN1C(=O)NC(NC(=O)c2ccco2)(C(F)(F)F)C1=O (centres undefined) | inconclusive [inhibitor, partial curve] |
| O=C(/C=C/c1cccs1)NC(=S)NNC(=O)Cc1cccs1 | inconclusive [inhibitor, full curve, poor fit] |
| COc1cccc(C(=O)N(Cc2ccc3c(c2)OCO3)Cc2nc3ccccc3c(=O)[nH]2)c1 | inconclusive [inhibitor, partial curve, poor fit] |
| COC(=O)C1=C(C)NC(=O)/C1=C\c1cc(C)n(-c2ccc(F)cc2)c1C | inactive |
| COc1cccc(OC)c1C(=O)O/N=C(\N)c1ccncc1 | inactive |
| CCOc1ccccc1N(CC(=O)Nc1cc(OC)ccc1OC)S(C)(=O)=O | inconclusive [inhibitor, full curve, poor fit] |
| COc1ccc(OC)c(-c2cc(C(=O)NC(C)c3ccccc3)no2)c1 (centres undefined) | inactive |
| Cc1nc2ccc(F)cc2cc1C(=O)Nc1ccc(Cl)c(Cl)c1 | inconclusive [inhibitor, partial curve] |
| CCN1C(=O)C(=Cc2ccc(C)s2)C(=O)N(CC)C1=S | inconclusive [inhibitor, partial curve, poor fit] |
| Cc1n[nH]c(=O)nc1NCCc1ccccc1 | inconclusive [inhibitor, full curve, poor fit] |
| O=C(c1ccccc1)c1cc(Cl)ccc1N1C(=O)C=CC1=O | inconclusive [inhibitor, partial curve, poor fit] |
| COC(=O)CC1(CC(=O)OC)C(=O)NC(=O)NC1=O | inconclusive [inhibitor, full curve, poor fit] |
| CC(C)(C)N(NC(=O)OCc1ccccc1)C(=O)c1ccccc1 | inconclusive [inhibitor, full curve] |
| CCOC(=O)c1ccc(NC(=O)CSc2nc3c(c(=O)n2C)SC(C)C3)cc1 (centres undefined) | inconclusive [inhibitor, partial curve] |
| CCN1CCN(C(=O)/C(=C/c2ccco2)NC(=O)c2ccccc2)CC1 | inconclusive [inhibitor, partial curve, poor fit] |
